# This is one part of the list.
# Target: T1, OsWOX13 (Oryza sativa, UniProt Q5QMM3 1-267)
# T1 sequence: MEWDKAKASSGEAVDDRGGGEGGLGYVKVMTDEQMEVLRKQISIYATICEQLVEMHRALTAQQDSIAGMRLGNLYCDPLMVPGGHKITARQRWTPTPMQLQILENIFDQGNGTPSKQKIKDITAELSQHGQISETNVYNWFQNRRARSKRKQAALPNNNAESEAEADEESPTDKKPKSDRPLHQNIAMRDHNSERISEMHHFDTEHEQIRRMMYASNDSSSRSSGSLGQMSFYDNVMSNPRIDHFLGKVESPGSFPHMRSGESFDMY
# Test: protein-binding microarray (RPBM); PBS, 2% BSA, 51.3 ng/ul salmon testes DNA, 50 uM zinc acetate, 200 nM TF, 25 C, 1 h; high values mean tight binding
# Conditions: protein: recombinant; tags: N-terminal polyhistidine and DsRed monomer fusion (pET32a); label: CyDye5-dUTP incorporated in the synthesized complementary strand; 3' TTTTT single-stranded linker to array surface; dsDNA, one strand shown
# Outline: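 Binding signal here means per-feature fluorescence intensity in arbitrary units. The values were read on an Axon 4000B scanner after a custom Agilent array, double-stranded by primer extension with Cy5-dUTP, was incubated with 200 nM protein at 25 °C for 1 h in PBS with 2% BSA, salmon testes DNA and 50 µM zinc acetate, then washed. The proteins were transcription factors with an N-terminal polyhistidine tag and DsRed, expressed in E. coli BL21-CodonPlus and purified on Ni–NTA.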
row,Sequence,binding signal
1,CTTTATGCAATGATTGGGAGGAATGTGAAGAGGAGAAAGACGGAGTCACCTAGTGCAG,11900 fluorescence intensity (a.u.)
2,ATAGATTGACTTTGACCAAAGTCAAAACGTCATGTAAACTCGGAGTCACCTAGTGCAG,31300 fluorescence intensity (a.u.)
3,CAGCATTCAAATTAAGGTGAGATTATTAACATAGTCCCAGCGGAGTCACCTAGTGCAG,3700 fluorescence intensity (a.u.)
4,ATATGATTATATTTGATGATGCAGCAGTCACGAATGTTTTCGGAGTCACCTAGTGCAG,36200 fluorescence intensity (a.u.)
5,CGCTGATGAATCGTTGCGGGTTGCCGCTTTGGACACCGCCCGGAGTCACCTAGTGCAG,3410 fluorescence intensity (a.u.)
6,TTCGATTAGCATGTCATTGCACCAAACAAGCTTCTGCTTCCGGAGTCACCTAGTGCAG,3790 fluorescence intensity (a.u.)
7,ATTATACGTTTGCTACTAATTTATACATGATGTTCATATTCGGAGTCACCTAGTGCAG,3480 fluorescence intensity (a.u.)
8,AGCCGATTGCCTTTATATCATCATCTACATTGGACATATACGGAGTCACCTAGTGCAG,3150 fluorescence intensity (a.u.)
9,ATATACCCTTAAATAATTATCATAAACTCATTTTCATCCACGGAGTCACCTAGTGCAG,3990 fluorescence intensity (a.u.)
10,TTATTAATATATTTAATTTAATGATCCGAGATAACATATCCGGAGTCACCTAGTGCAG,15200 fluorescence intensity (a.u.)
11,GTCATTGATTGTTCAAAGCGATAATTATTATCAAACCGGTCGGAGTCACCTAGTGCAG,35500 fluorescence intensity (a.u.)
12,AGTGGGTGGTGATTAGCAGGGACACCTCATTTTCGTTAGCCGGAGTCACCTAGTGCAG,3760 fluorescence intensity (a.u.)
13,TTGAGACAGATAGTTTGGTACTATCAGATTTCAGTTCCGTCGGAGTCACCTAGTGCAG,3720 fluorescence intensity (a.u.)
14,ACCCGTGATTTGGTGGACTCGCGCATGGCGGTGATCAGCGCGGAGTCACCTAGTGCAG,7960 fluorescence intensity (a.u.)
15,TAACTTGCAATTAATTACAATCTTTCCAAAATAAGTACTCCGGAGTCACCTAGTGCAG,16900 fluorescence intensity (a.u.)
16,GTACAACTTAATTAGACCATAATATCTAAGGTTGCGTAATCGGAGTCACCTAGTGCAG,4570 fluorescence intensity (a.u.)
17,ATTACTAATTCCGCATATCAGCACACCGCACAAAATCCAACGGAGTCACCTAGTGCAG,3730 fluorescence intensity (a.u.)
18,CGGAATATAATTAAGAGAAATCCATGCGTAGGCCATGTAGCGGAGTCACCTAGTGCAG,5610 fluorescence intensity (a.u.)
19,TTAATTAGCTCTCTCACCATTCATCTATCTATGTCTCTTCCGGAGTCACCTAGTGCAG,5060 fluorescence intensity (a.u.)
20,TATTGCAGATTGGAGGCAGTAACTTCTTGGGAAAGGCACCCGGAGTCACCTAGTGCAG,3230 fluorescence intensity (a.u.)
21,CTATTCACCAATCACGCAAAACCCTTCTCTCCAAGAACACCGGAGTCACCTAGTGCAG,9240 fluorescence intensity (a.u.)

row,Sequence,binding signal
1,CGGCGTCAATCTTCTCCCCATCACGCGCTCGCTCCTCTCTCGGAGTCACCTAGTGCAG,17500 fluorescence intensity (a.u.)
2,CAAAATCAAATTATTTCAAATTTGATCAAGTTTGTATAGACGGAGTCACCTAGTGCAG,16700 fluorescence intensity (a.u.)
3,ATAGTGTTTAATTACAAATTGTCTGTCATCCCTGTCTGAACGGAGTCACCTAGTGCAG,12800 fluorescence intensity (a.u.)
4,TATTAAATTGTCAGTTTGTGTACCTCGGCTGATTCCTGGACGGAGTCACCTAGTGCAG,19400 fluorescence intensity (a.u.)
5,GAGGTTATTTGATCAAATTTTGTCGATAGTAAACAATGTACGGAGTCACCTAGTGCAG,4550 fluorescence intensity (a.u.)
6,GGGGTGTTAGTTAATTGCATGTATCCGTACGTGACTTGTACGGAGTCACCTAGTGCAG,7590 fluorescence intensity (a.u.)
7,TATTAAATTGGCTATAGGTGATTTGGAGCTAATAGTTAGCCGGAGTCACCTAGTGCAG,24000 fluorescence intensity (a.u.)
8,GTTGTAAAATTTAATTTTCTTACTATATAATTTTCTTTCACGGAGTCACCTAGTGCAG,7230 fluorescence intensity (a.u.)
9,ATAAGACAGACAGTCAAACGTTGGCACGAGAACCCATGGTCGGAGTCACCTAGTGCAG,6820 fluorescence intensity (a.u.)
10,AATGCAGGAACAGCATAAGCTTTGCGTATATTTGTATTAACGGAGTCACCTAGTGCAG,65500 fluorescence intensity (a.u.)
11,CACTTAATCATATTCATCATATTCAAACGGGACCTAAGGGCGGAGTCACCTAGTGCAG,8880 fluorescence intensity (a.u.)
12,GATAATTTCATCCTTACAAGAAACTGTCTAACCAATCGGGCGGAGTCACCTAGTGCAG,15100 fluorescence intensity (a.u.)
13,CGTAAACAAATAGGTCCAACATAATTTAACCTTCATAGAGCGGAGTCACCTAGTGCAG,5570 fluorescence intensity (a.u.)
14,TTTTAAATCAATGGTTAGTAATTGAAAATTCTTCTAAATTCGGAGTCACCTAGTGCAG,16600 fluorescence intensity (a.u.)
15,AATTATTTAAATCAATGTAACTCAAAAGTTAATAAACGTGCGGAGTCACCTAGTGCAG,13100 fluorescence intensity (a.u.)
16,CCTAATTACACCATGATTTAACAATATGGTGCTATAGTAACGGAGTCACCTAGTGCAG,31800 fluorescence intensity (a.u.)
17,CAAGATGATGAATGCCATTTGATTCTAGGCTAATAGTGGCCGGAGTCACCTAGTGCAG,7620 fluorescence intensity (a.u.)
18,TAAACACTTGAATGATTTTGTAATTGTTATTTAAGGGTCCCGGAGTCACCTAGTGCAG,8660 fluorescence intensity (a.u.)
19,CACATAAATTGTGAAGAGTGGAAATTGAGCTGTCATTTAGCGGAGTCACCTAGTGCAG,3590 fluorescence intensity (a.u.)
20,AAAGTTAAAATTTAAATTTTCGAATGTTAATTTTAAGATACGGAGTCACCTAGTGCAG,6010 fluorescence intensity (a.u.)
21,CCCGCGATTAGCAGCTCATTAATTCCACTCCAAATTTAATCGGAGTCACCTAGTGCAG,4280 fluorescence intensity (a.u.)

row,Sequence,binding signal
1,ACCAAACTTACAATTTTGACACGATCAACCCAAACTATGACGGAGTCACCTAGTGCAG,3670 fluorescence intensity (a.u.)
2,CCAAAATGATAAGATATCTAATCTAATCACACCTCAAAGTCGGAGTCACCTAGTGCAG,13200 fluorescence intensity (a.u.)
3,TAAAATTTAAAATTATGTTGTCATTTTAATATATTTGAATCGGAGTCACCTAGTGCAG,5930 fluorescence intensity (a.u.)
4,CAACTGATTCTAATTTTACTACGGCCCAGTATGTACCAATCGGAGTCACCTAGTGCAG,8360 fluorescence intensity (a.u.)
5,GTAGCTAATTAAGTAAGGGATAGCTTTAATAGCTCGATTTCGGAGTCACCTAGTGCAG,8270 fluorescence intensity (a.u.)
6,TGTTTGATAATTGACTTTTCCATTCCAAATTACAGACACTCGGAGTCACCTAGTGCAG,28000 fluorescence intensity (a.u.)
7,TGGCGTAATTAGCCTCAAAAGATTCGTCTCGTAATTTACACGGAGTCACCTAGTGCAG,8550 fluorescence intensity (a.u.)
8,TTGATAGCTTATCAGTAATGGCACGCATCGTACGTTGCAGCGGAGTCACCTAGTGCAG,3970 fluorescence intensity (a.u.)
9,AATCACATATCTAGATTTACAAATTTGTAAAGTTAGAAATCGGAGTCACCTAGTGCAG,6790 fluorescence intensity (a.u.)
10,TATAATTACAGGATTTCTTTTGTACTCCCTCCATTCTAAACGGAGTCACCTAGTGCAG,5820 fluorescence intensity (a.u.)
11,CGATGACTGGAATATGCCTCACACGGCTGCAAAACTGCAGCGGAGTCACCTAGTGCAG,14200 fluorescence intensity (a.u.)
12,TAAATTTGATTTAGTTAATACTATACTTATTTAAGGTACACGGAGTCACCTAGTGCAG,25400 fluorescence intensity (a.u.)
13,CCGCACATGTCAAATTCTAATTGGGTAAGGATGTCACACCCGGAGTCACCTAGTGCAG,4890 fluorescence intensity (a.u.)
14,AATCAATTAATGCTGTGAAATGAATTAATGCATAGTGGCACGGAGTCACCTAGTGCAG,41600 fluorescence intensity (a.u.)
15,GAGGGAGTAATAATTAGATTTAGATATGTACTAATACACTCGGAGTCACCTAGTGCAG,7470 fluorescence intensity (a.u.)
16,GATAACTATGATTTCTCAACAATTGGATTATTCTAAAGCGCGGAGTCACCTAGTGCAG,10200 fluorescence intensity (a.u.)
17,AAGACGTTTCTCAATTATTGTAGTTAAGTGAGTTTAGTATCGGAGTCACCTAGTGCAG,4920 fluorescence intensity (a.u.)
18,CATGGTGATAGGAAAAGTTACATGTCTCCACAATATGTAACGGAGTCACCTAGTGCAG,4380 fluorescence intensity (a.u.)
19,GCGGGCGGAGGAGCTCGGGCGTGGGCGGGGAGGGCGGATCCGGAGTCACCTAGTGCAG,3250 fluorescence intensity (a.u.)
20,ATGTTGATATATAAAGATTTTACTAATCATACTTTTAAAACGGAGTCACCTAGTGCAG,6020 fluorescence intensity (a.u.)
21,TTCGAAAATTACCTGTAACCTTCCATCCATCACACACACACGGAGTCACCTAGTGCAG,3500 fluorescence intensity (a.u.)

row,Sequence,binding signal
1,TTTGATAGGACGAATCTGAACTTCTGAAGCCATCATACTTCGGAGTCACCTAGTGCAG,13000 fluorescence intensity (a.u.)
2,GATGATTTGCTTACTGAATGTCTCGGGTATTTAGTTCCAACGGAGTCACCTAGTGCAG,38500 fluorescence intensity (a.u.)
3,ATACTGCTGTAACATTTGATTGGATTGAAAGGATATCGCTCGGAGTCACCTAGTGCAG,20500 fluorescence intensity (a.u.)
4,AATATAATCAAATTTAGCCAATAAAAGGTTTAGATTGTCACGGAGTCACCTAGTGCAG,7290 fluorescence intensity (a.u.)
5,TGTGATTGGTTGGAGCAGCTGCGCGCGGATCGCATTCGCACGGAGTCACCTAGTGCAG,22700 fluorescence intensity (a.u.)
6,AATGTTGCAATCACTGACTGAAAATCACCCAGTTCTCGTACGGAGTCACCTAGTGCAG,16600 fluorescence intensity (a.u.)
7,CTCTCTCTCTGATTAGTTAATTGAATACATTGTAAGGGCCCGGAGTCACCTAGTGCAG,41200 fluorescence intensity (a.u.)
8,TCTACTTTTCTAATTCCCAATCTATTATTTCTAATTATATCGGAGTCACCTAGTGCAG,3800 fluorescence intensity (a.u.)
9,AAGTTAACTAATTATACAGATTGCGTGTAAATTGTGAGACCGGAGTCACCTAGTGCAG,24400 fluorescence intensity (a.u.)
10,TGTCGAATGTGATTTAACAATTCCGCTAATATTAACTGTTCGGAGTCACCTAGTGCAG,6020 fluorescence intensity (a.u.)
11,TGTGAACCAAATTATAATTCACTCATCTGGACAGAACTCTCGGAGTCACCTAGTGCAG,5260 fluorescence intensity (a.u.)
12,TCGTTCAGATTGGATGCAACGGTGGAGATTAGTATTTCCACGGAGTCACCTAGTGCAG,6160 fluorescence intensity (a.u.)
13,CTGTCTGCTTTCTGATTGATTGAGATGAGATCTACTAGGACGGAGTCACCTAGTGCAG,28300 fluorescence intensity (a.u.)
14,TGATAAATCATAGCGTTAAAATTGAAGTATCCTAGCTGTTCGGAGTCACCTAGTGCAG,8770 fluorescence intensity (a.u.)
15,CCAATTATACTTGCCAATCTGCCGTCACCTCACCTGTTCTCGGAGTCACCTAGTGCAG,5540 fluorescence intensity (a.u.)
16,CGTTTAATTGTGTATATATATAGCCACATTAAAGTACACACGGAGTCACCTAGTGCAG,11100 fluorescence intensity (a.u.)
17,AATGATAAATTTAAAGTTTATATGTTAAATTGTTATTGTTCGGAGTCACCTAGTGCAG,18300 fluorescence intensity (a.u.)
18,AGGGATTTGAAGCAATTTAAAATTTGACAACTAAAGTGACCGGAGTCACCTAGTGCAG,6610 fluorescence intensity (a.u.)
19,CCACGCTAAAATTGGAAGTTTGACTAAAATTAGAAGTTTACGGAGTCACCTAGTGCAG,3220 fluorescence intensity (a.u.)
20,TTTAATTTTGCGTACGATCCAATCTCCCTCTAAACGGCCACGGAGTCACCTAGTGCAG,8570 fluorescence intensity (a.u.)
21,AGTGAATTGAGGGATTTATAGTGAACTTACTCCTTATCTTCGGAGTCACCTAGTGCAG,3420 fluorescence intensity (a.u.)
